# Reference: article PMC9911399, “Two distinct binding modes provide the RNA-binding protein RbFox with extraordinary sequence specificity”
# Residue numbers refer to the chain shown, from its start. The list shows a part of the results.
# T1: RBFOX1 RRM RbFoxmut (Fox-RRM*) (Homo sapiens, UniProt Q9NWB1 109-208, R118D;E147R;N151S;E152T)
# T1 sequence: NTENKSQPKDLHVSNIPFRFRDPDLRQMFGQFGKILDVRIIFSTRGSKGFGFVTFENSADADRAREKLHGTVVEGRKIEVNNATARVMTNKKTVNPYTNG
# B1: AUUCGCG (DNA:RNA)
# RNA: GGGAGACCGGAAUUCAGAUUGUCCAUUCGCGUUAAAUCCCGUCGUAGCCACCA
# DNA 1: CAATCTGAATTCCGGTCTCCC
# DNA 2: TGGTGGCTACGACGGGATT
# B2: GCCUGCA (DNA:RNA)
# RNA: B1 RNA with A25G, U26C, U27C, C28U, G31A
# DNA 1: CAATCTGAATTCCGGTCTCCC
# DNA 2: TGGTGGCTACGACGGGATT
# B3: UUGCGUG (DNA:RNA)
# RNA: B1 RNA with A25U, U27G, C30U
# DNA 1: CAATCTGAATTCCGGTCTCCC
# DNA 2: TGGTGGCTACGACGGGATT
# B4: UUACACG (DNA:RNA)
# RNA: B1 RNA with A25U, U27A, G29A
# DNA 1: CAATCTGAATTCCGGTCTCCC
# DNA 2: TGGTGGCTACGACGGGATT
# B5: UAUACCG (DNA:RNA)
# RNA: B1 RNA with A25U, U26A, C28A, G29C
# DNA 1: CAATCTGAATTCCGGTCTCCC
# DNA 2: TGGTGGCTACGACGGGATT
# B6: GGGGAGG (DNA:RNA)
# RNA: B1 RNA with A25G, U26G, U27G, C28G, G29A, C30G
# DNA 1: CAATCTGAATTCCGGTCTCCC
# DNA 2: TGGTGGCTACGACGGGATT
# B7: UCCGGGU (DNA:RNA)
# RNA: B1 RNA with A25U, U26C, U27C, C28G, C30G, G31U
# DNA 1: CAATCTGAATTCCGGTCTCCC
# DNA 2: TGGTGGCTACGACGGGATT
# B8: UCUAGUG (DNA:RNA)
# RNA: B1 RNA with A25U, U26C, C28A, C30U
# DNA 1: CAATCTGAATTCCGGTCTCCC
# DNA 2: TGGTGGCTACGACGGGATT
# B9: GAUAUGC (DNA:RNA)
# RNA: B1 RNA with A25G, U26A, C28A, G29U, C30G, G31C
# DNA 1: CAATCTGAATTCCGGTCTCCC
# DNA 2: TGGTGGCTACGACGGGATT
# Target: T1, RBFOX1 RRM RbFoxmut (Fox-RRM*)
# Test: EMSA; HiTS-Eq, 1 nM pool, 10 min; buffer printed only for the single-RNA assays: 10 mM Tris pH 7.5, 150 mM NaCl, 3.4 mM EDTA, 0.001% NP-40, 30 C
# Settings: tags: His6 N-terminal (pET28a); label: 5' 32P
# Method in brief: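 Purified RbFox RRM, wild type or mutant, was incubated for 10 min in 50 µL with 1 nM of a 5′-radiolabelled RNA pool carrying 7 randomized nucleotides, whose flanks were annealed to DNA oligonucleotides, over a series of increasing protein concentrations. Unbound RNA was resolved on 8% native PAGE, cut out, reverse-transcribed, barcoded by PCR and sequenced on an Illumina HiSeq 2500. Relative association constants were derived from changes in read counts for each RNA species versus the control reaction and normalised to the cognate motif.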
row,Binder,binding signal
1,B1,0.128 KA relative to UGCAUGU
2,B2,0.184 KA relative to UGCAUGU
3,B3,0.252 KA relative to UGCAUGU
4,B4,0.0815 KA relative to UGCAUGU
5,B5,0.0644 KA relative to UGCAUGU
6,B6,0.104 KA relative to UGCAUGU
7,B7,0.0588 KA relative to UGCAUGU
8,B8,0.114 KA relative to UGCAUGU
9,B9,0.12 KA relative to UGCAUGU
